Test results taken from PubChem BioAssay AID686978 (National Center for Advancing Translational Sciences (NCATS), 2013).
Several values for one entry are separate records, joined by “and”; a condition that tells them apart may be missing. Equal values may be shown once. The campaign covered roughly 420,000 compounds. About 64,000 (15%) were called active. The shares of active, inactive and inconclusive entries below differ from those in the screen. Calls follow the shape of the dose curve; as a rule, active = well fitted inhibition curve with a large enough effect; inconclusive = small, poorly fitted or top-dose-only effect; inactive = flat fitted curve, though single readings scatter. Potencies of inconclusive entries are doubtful fits and often do not repeat.

Assay: qHTS for Inhibitors of human tyrosyl-DNA phosphodiesterase 1 (TDP1): qHTS in cells in absence of CPT; also: nearly all actives have a fitted effect of over 55% in size
Conditions: DT40 Tdp1-/- hTDP1 cells, no CPT, ATP luminescence, 48 h; activity change, negative = growth inhibition: at 46.2 µM (top of the series) unless noted
Summary of the method: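 Readout: luminescence from CellTiter-Glo after 30 min in the dark at RT. Cells: DT40 Tdp1-/- with stable hTDP1, 400/well. Exposure: compounds alone, ≥48 hr, 37 °C.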
% is scaled to controls: 0 for no effect and ±100 for the full control effect; potency is read from the fitted curve at half-maximal effect; tags tell the direction and shape of the fitted curve.

SMILES	Potency	activity change, negative = growth inhibition
N#C/C(=C/C=C/c1ccccc1)C(=O)Nc1ccccc1	inconclusive: 29.1 µM [inhibitor, single point]	
O=C(c1ccc(Oc2ccc([N+](=O)[O-])cc2Cl)cc1)N1CCCC1	inconclusive: 18.4 µM [inhibitor, single point]	
Cc1ccccc1-c1nc2ccc(Cl)cc2c(=O)n1O	inconclusive: 29.1 µM [inhibitor, single point]	
O=C(N/N=C/c1ccccn1)c1cc(-c2ccc3ccccc3c2)n[nH]1	inconclusive: 29.1 µM [inhibitor, single point]	
CCN(CC(=O)Nc1ccc2c(c1)OCCO2)C(=O)c1ccc(Cl)cc1Cl	inconclusive: 23.1 µM [inhibitor, single point]	
Cn1c(=N)n(CC(O)c2ccco2)c2ccccc21 (stereo unspecified)		inactive: -5.68%
COc1cccc(NC(=O)Cn2c(=O)n(CC3CCCO3)c(=O)c3ccccc32)c1 (stereo unspecified)		inactive: -8.44%
CCn1ncc(C2=NOC(C(=O)Nc3cc(OC)c(Cl)cc3OC)C2)c1C (stereo unspecified)		inconclusive: -31.5% [inhibitor]
Cc1nn(C(C)(C)C)c(OC(=O)c2cccc(F)c2)c1Sc1ccccc1	inconclusive: 20.6 µM [inhibitor, single point]	
Cc1cccc(N2CCN(C(=O)c3ccc(N4CCCC4=O)cc3)CC2)c1C	active: 23.1 µM	
CCc1ccc(NC(=O)CCCn2nc(C)c3c(C)n(-c4ccccc4)nc3c2=O)cc1	inconclusive: 10.3 µM [inhibitor, single point]	
CC(C)CC(C(=O)NCCc1ccccc1)N1Cc2ccccc2C1=O (stereo unspecified)	active: 20.6 µM	
CC(C)(C)c1ccc(S(=O)(=O)N2CCN(c3ncccn3)CC2)cc1	inconclusive: 7.31 µM [inhibitor, partial curve]	
O=c1[nH]c(CS(=O)(=O)c2ccccc2)nc2ccccc12		inconclusive: -33.3% [inhibitor]
CC(C)CC1COC(=O)N1 (stereo unspecified)		inactive: -7.19%
CC(C)C[C@H](CO)Nc1nc(N(C)c2cccc(Cl)c2)c2ncn(C(C)C)c2n1	inconclusive: 29.1 µM [inhibitor, single point]	
COc1ccc(C(=O)COC(=O)c2sc(C)nc2C)cc1F		inactive: -21.1%
COc1cc(S(=O)(=O)N2CCC(N3CCCCC3)CC2)ccc1-n1cnnn1		inactive: -6.05%
C=CCn1c(=N)n(CC(O)COc2ccccc2OC)c2ccccc21 (stereo unspecified)	inconclusive: 20.6 µM [inhibitor, single point]	
Cc1nn(-c2ccccc2)c(Cl)c1/C=N/NC(=O)OC(C)(C)C	active: 16.4 µM	
CC1(C)C([N+](=O)[O-])C(c2ccccc2O)NC(c2ccccc2O)C1[N+](=O)[O-] (stereo unspecified)	inconclusive: 18.4 µM [inhibitor, partial curve]	
CCCSCCCNC(=O)c1ccc(C)c(NC(=O)C2=C(C)OCCS2)c1	inconclusive: 13 µM [inhibitor, partial curve, poor fit]	
COc1ccc2c(c1)c1nc3ccccc3nc1n2CCn1c(=O)oc2ccccc21	inconclusive: 0.58 µM [inhibitor, single point]	
COc1ccc(-c2[nH]ncc2CN(CC2CCC(=O)N2)C(C)C)cc1F (stereo unspecified)	inconclusive: 10.3 µM [inhibitor, partial curve]	

SMILES	Potency	activity change, negative = growth inhibition
C[C@H]1CN([C@@H](C)CO)C(=O)CCCn2cc(nn2)CO[C@@H]1CN(C)C(=O)Nc1cccc(Oc2ccccn2)c1		inactive: -2.01%
CCc1nc2c(OCc3cc(Cl)cc(Cl)c3)cccn2c1N(C)C(=O)c1ccc(OC)cc1	active: 16.4 µM	
CCCc1c(C(=O)N/N=C/c2ccc(OCc3ccccc3)c(OC)c2)nnn1-c1nonc1N	inconclusive: 16.4 µM [inhibitor, partial curve]	
CCOc1ccc2nc(NCCNS(=O)(=O)c3ccccc3)c(C#N)cc2c1		inactive: -18.8%
Cc1cc(C)n(-c2ccc(C(=O)N3CCC(CO)(Cc4ccccc4)CC3)cc2)n1	inconclusive: 18.4 µM [inhibitor, single point]	
COc1ccccc1NC(=O)CN1CCN(CC(=O)Nc2cc(NC(C)=O)ccc2OC)CC1	inconclusive: 29.1 µM [inhibitor, single point]	
Clc1cccc(Cl)c1CNCCCSc1ncccn1	inconclusive: 16.4 µM [inhibitor, single point]	
CC(C)CCN1CC(O)=C(c2nc(-c3ccc(Cl)cc3)cs2)C1=N	inconclusive: 5.17 µM [inhibitor, partial curve]	
Cc1ccc2nc3c(cc(S(=O)(=O)c4ccccc4)c(=N)n3Cc3ccco3)c(=O)n2c1	inconclusive: 4.11 µM [inhibitor, partial curve]	
Cc1ccc2oc(=O)c3cc(C(=O)NCCCN4CC(C)CC(C)C4)sc3c2c1 (stereo unspecified)	inconclusive: 20.6 µM [inhibitor, single point]	
CC(=O)Nc1ccc2nc(SCCOc3ccccc3)sc2c1		inconclusive: -30.1% [inhibitor]
O=C(CCc1nnc2n(Cc3ccc(Cl)cc3)c(=O)c3ccccc3n12)N1CCN(c2ccccn2)CC1	active: 20.6 µM	
Cc1ccn(CCC(=O)N2CCc3ccccc32)n1		inactive: -26.5%
Cc1cccc(NC(=O)C2(C)Cc3ccccc3C(=O)O2)c1 (stereo unspecified)	inconclusive: 20.6 µM [inhibitor, single point]	
Cc1ccccc1CCN(C(=O)Cn1nnc2ccccc21)C(C(=O)NC(C)(C)C)c1ccsc1 (stereo unspecified)	active: 25.9 µM	
Cc1nc(-c2cnn(-c3ccccc3)c2)c2cc(C)oc2n1	active: 18.4 µM	
CC1=C(C(=O)N2CCCC(N3CCN(c4cccc(C(F)(F)F)c4)CC3)C2)OCCO1 (stereo unspecified)	inconclusive: 20.6 µM [inhibitor, single point]	
CC(=O)N1CCC(N(CCCOC(C)C)C(=O)Nc2ccc(Cl)cc2)CC1		inactive: -16.6%
C[C@@H]1CN([C@H](C)CO)C(=O)c2cc(NC(=O)Nc3ccc(F)cc3)ccc2O[C@@H](C)CCCCO[C@H]1CN(C)S(=O)(=O)c1ccc(Cl)cc1	inconclusive: 29.1 µM [inhibitor, single point]	
O=C(O)CSc1nnc(CSc2nc3ccccc3s2)n1-c1ccccc1		inactive: -10.3%
COC(=O)c1nc2n(n1)C(c1ccc(OC)c(OC)c1)C(C(=O)OC1CCCCC1)=C(C)N2 (stereo unspecified)	inconclusive: 18.4 µM [inhibitor, partial curve]	
Cc1c(CNC2CCCCCC2)c(C(=O)O)c(C)n1Cc1ccc(F)cc1		inactive: -10.9%
COc1ccc([C@H]2CN(Cc3ccccc3)C(=O)[C@@H]2CC(=O)Nc2ccccc2)cc1		inconclusive: -30.3% [inhibitor]
CN1CCN(c2ncnc3c2ncn3[C@H]2CN(Cc3cccnc3)C[C@@H](CO)O2)CC1		inactive: 4.58%

SMILES	Potency	activity change, negative = growth inhibition
CCc1ccc(CN(Cc2ccco2)C(=O)COc2ccc(Cl)cc2C)cc1	inconclusive: 23.1 µM [inhibitor, single point]	
COc1ccc(OC)c(NC(=O)C23CC4CC(C2)CC(n2cnc(Br)n2)(C4)C3)c1	active: 10 µM	
Cc1ccc(S(=O)(=O)N2CCC(C(=O)N[C@@H](C)C(=O)NCc3ccco3)CC2)cc1		inactive: -26.1%
COc1ccc(NC(=O)N2CCN(C(=O)C3CCCO3)CC2)cc1 (stereo unspecified)		inactive: 0.23%
Cc1[nH]n2c(=O)c3c(nc2c1-c1cccc2ccccc12)CCC3	inconclusive: 25.9 µM [inhibitor, single point]	
C(=N\Nc1ccccn1)/c1ccc(N2CCOCC2)cc1	active: 16.4 µM	
Cc1ccc(OCCC(=O)N2CCN(c3ccc(O)cc3)CC2)cc1	active: 16.4 µM	
O=C(CCn1c(=O)c2cccn2c2cccnc21)NCCCN1CCN(c2ccc(F)cc2)CC1	inconclusive: 29.1 µM [inhibitor, single point]	
NC(Cc1cc(I)c(Oc2cc(I)c(O)c(I)c2)c(I)c1)C(=O)O (stereo unspecified)		inactive: -13.7%
COCCNC(=O)c1ccc2c(c1)C(=O)c1ccccc1-2		inactive: -19.6%
COc1ccc(NC(=O)C2CCC(CNS(=O)(=O)c3cccs3)CC2)cc1OC (stereo unspecified)	inconclusive: 29.1 µM [inhibitor, single point] and inconclusive: 25.9 µM [inhibitor, single point]	
O=C(NC1(C(F)(F)F)C(=O)Nc2c1c(=O)[nH]c(=O)n2-c1ccccc1)c1ccncc1 (stereo unspecified)		inactive: -1.34%
COc1ccc(C(=O)N=c2sc3ccccc3n2C)cc1OC	active: 14.6 µM	
O=C1CC(NS(=O)(=O)c2ccc([N+](=O)[O-])cc2)CN1c1cccc(F)c1 (stereo unspecified)	inconclusive: 29.1 µM [inhibitor, single point]	
O=C(O)c1sc2cc(C(F)(F)F)cnc2c1-c1cccs1		inactive: 5.03%
Cc1cccc(N2CCN(CC(O)COc3ccccc3Cl)CC2)c1 (stereo unspecified)	active: 16.4 µM	
Cc1cc(NC2=CC(=O)C(=O)c3ccccc32)no1	active: 11.6 µM	
C=CCn1c(-c2cccnc2Cl)nc2ccccc21		inactive: 4.88%
CCOc1cc(C(c2c(C)[nH][nH]c2=O)c2c(C)[nH][nH]c2=O)cc([N+](=O)[O-])c1O		inactive: -7.97%
Nc1c(N(Cc2ccccc2)C(=O)COc2ccc([N+](=O)[O-])cc2)c(=O)[nH]c(=O)n1Cc1ccccc1	inconclusive: 0.206 µM [inhibitor, full curve, poor fit]	
Cn1c(=O)c2cc(NC(=O)Nc3cccnc3)ccc2n1-c1ccc(C(C)(C)C)cc1	inconclusive: 23.1 µM [inhibitor, single point]	
Cc1nc2ccccc2nc(C)c1=NOCC(=O)N(c1ccccc1)C(C)C	active: 18.4 µM	
Cc1cc(C)c2nc(NC(=O)C3CC(=O)N(Cc4ccco4)C3)sc2c1 (stereo unspecified)	inconclusive: 16.4 µM [inhibitor, partial curve]	
